# The campaign covered roughly 360,000 compounds. About 25,000 (6.9%) were called active. The shares of active, inactive and inconclusive entries below differ from those in the screen. Calls come from the whole dose curve; as a rule, active = well fitted inhibition curve with a large enough effect; inconclusive = small, poorly fitted or top-dose-only effect; inactive = flat fitted curve, though single readings scatter. Potencies of inconclusive entries are doubtful fits and often do not repeat.
# Biological target: Luciferin 4-monooxygenase (Photinus pyralis) (UniProt P08659)
# Chain of UniProt P08659 (P08659 whole entry, looked up): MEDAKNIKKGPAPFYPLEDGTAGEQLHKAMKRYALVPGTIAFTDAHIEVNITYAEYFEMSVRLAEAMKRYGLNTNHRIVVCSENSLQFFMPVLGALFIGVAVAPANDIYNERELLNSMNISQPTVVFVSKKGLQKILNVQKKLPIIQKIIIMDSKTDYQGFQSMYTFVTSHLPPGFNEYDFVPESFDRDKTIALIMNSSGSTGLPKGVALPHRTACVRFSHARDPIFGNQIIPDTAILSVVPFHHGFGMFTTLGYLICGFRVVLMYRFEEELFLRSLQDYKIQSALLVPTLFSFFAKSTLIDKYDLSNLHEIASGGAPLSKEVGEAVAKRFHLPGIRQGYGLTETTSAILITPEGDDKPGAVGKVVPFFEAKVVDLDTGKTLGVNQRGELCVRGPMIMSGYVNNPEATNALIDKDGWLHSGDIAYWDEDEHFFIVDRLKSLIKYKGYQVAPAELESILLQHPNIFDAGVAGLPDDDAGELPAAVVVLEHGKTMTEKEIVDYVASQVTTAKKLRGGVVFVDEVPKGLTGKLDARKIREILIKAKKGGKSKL
# Test: qHTS profiling assay for firefly luciferase inhibitor/activator using purifed enzyme and Km concentrations of substrates (counterscreen for miR-21 project); note: nearly all actives have a fitted effect of over 55% in size
# Details: purified FLuc, luminescence inhibition; series mostly up to 57.5 µM
# How it was run: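 Purified P. pyralis luciferase (10nM final) with 10uM D-luciferin and 10uM ATP (Km levels) in 50mM Tris acetate pH 7.5, 10mM Mg acetate, 0.01% Tween-20, 0.05% BSA; qHTS 6-point titration, ~60 µM downward; luminescence read.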
# Potency is the fitted concentration of half-maximal effect; tags give direction and shape of the fitted curve.
row,SMILES,Potency
1,COc1ccc([C@]23Cc4cc(OC)c(OC)cc4C(O2)C2=C(CCCC2=O)O3)cc1,"inconclusive: 4.37 µM [inhibitor, partial curve, poor fit]"
2,CCC(=O)N1CCc2cc(S(=O)(=O)CCC(=O)NCc3cccc(OC)c3)ccc21,inactive
3,COc1cc(NC(=O)c2ccc(Cl)cc2Cl)ccc1NC(=O)c1cccs1,"inconclusive: 8.49 µM [inhibitor, partial curve]"
4,Cc1cc(C(F)F)n2nc(C(=O)Nc3sc4c(c3C#N)CCC(C)C4)nc2n1 (centres undefined),"inconclusive: 21.3 µM [inhibitor, single point]"
5,Cc1nn(CC(C)C)c(Cl)c1C(=O)N(c1ccc(Cl)cc1F)S(C)(=O)=O,inactive
6,N/C(=N\c1nc2ccccc2o1)NC(=O)c1ccccc1,"inconclusive: 8.49 µM [inhibitor, partial curve]"
7,O=C(Nc1cccc(S(=O)(=O)Nc2ccc(Cl)cc2)c1)c1ccc(Cl)nc1,inactive
8,Cc1nc(CS(=O)(=O)c2ccccc2)cc(Sc2ccc(Cl)cc2)n1,"inconclusive: 30.1 µM [inhibitor, partial curve, poor fit]"
9,CC(=O)Nc1nc(-c2ccc3ccccc3c2)cs1,active: 1.35 µM
10,COc1cc(NC(=O)c2c(C)oc3ncnc(N4CCCCC4)c23)cc(OC)c1,inactive
11,Cn1c(SCC(=O)NCC2CCCO2)ncc(C(=O)Nc2ccc(Cl)cc2)c1=O (centres undefined),"inconclusive: 21.3 µM [inhibitor, partial curve]"
12,Cc1c(Cl)cccc1NC(=O)C1COc2ccccc2O1 (centres undefined),inactive
13,COc1cc(C)ccc1OCCOCCOc1cccc2ccc(C)nc12,inactive
14,COc1ccc(-c2nc3ncccc3o2)cc1NC(=O)c1cccs1,"inconclusive: 37.9 µM [inhibitor, partial curve, poor fit]"
15,Cc1ccc(-n2[nH]c(C)c(/C=N/N3C(=O)c4cccc5cccc(c45)C3=O)c2=O)cc1,"inconclusive: 37.9 µM [inhibitor, single point]"
16,O=C(Nc1ccc(C(=O)Oc2ccccc2)c(O)c1)c1ccco1,active: 7.57 µM
17,O=C(Nc1ccccc1F)c1ccc(C(=O)c2ccccc2)cc1,active: 10.7 µM
18,Cc1ccc(NC(=O)Cc2nnc(N)s2)cc1,inactive
19,O=C(Nc1cccc(-c2ccc(N3CCCCC3)nn2)c1)C(F)(F)F,active: 1.35 µM
20,Cc1ccc2nc(-c3ccc(NC(=S)NC(=O)C(C)C)cc3)sc2c1,active: 3.79 µM
21,CNc1nc(-c2ccc3c(c2)CCN3C(=O)c2cccc(F)c2)cs1,active: 4.78 µM
22,COc1ccc(C(=O)NNC(=O)c2snnc2C)cc1,"inconclusive: 26.9 µM [inhibitor, single point]"
23,O=C(CSc1cn(CC(=O)N2CCCC2)c2ccccc12)Nc1cc(C(F)(F)F)ccc1Cl,inactive
24,FC(F)(F)c1cnc(/C=C/Nc2ccccc2Cl)c(Cl)c1,"inconclusive: 12 µM [inhibitor, partial curve]"
25,CCC1CN(C(=O)Nc2ccc(C(=O)O)cc2)c2cc(Cl)ccc2O1 (centres undefined),"inconclusive: 23.9 µM [inhibitor, partial curve, poor fit]"

row,SMILES,Potency
1,Cc1ccc(/C=C2/SC(=S)N(CCC(=O)N3CCN(C)CC3)C2=O)cc1,"inconclusive: 6.01 µM [inhibitor, partial curve]"
2,O=C(Nc1ccc(Cl)c([N+](=O)[O-])c1)ONC1=NCCCCC1,"inconclusive: 23.9 µM [inhibitor, single point]"
3,CC1(C)CC(=O)CC2(C1)NCC(c1ccccc1)c1c2[nH]c2ccccc12 (centres undefined),inactive
4,COC(=O)c1ccc(O)cc1,inactive
5,Cc1ccc(NNC(=O)c2ccno2)c(C)c1,inactive
6,COc1ccc2c(c1)nc(SCC(=O)c1cccs1)n2C,"inconclusive: 16.9 µM [inhibitor, partial curve]"
7,CCOC(=O)CC(=O)CSc1nc(-c2cccnc2)ccc1C#N,"inconclusive: 21.3 µM [inhibitor, single point]"
8,FC(F)(F)c1cccc(Nc2ncnc3ccccc23)c1,"inconclusive: 42.6 µM [inhibitor, partial curve, poor fit]"
9,CCC(Sc1nc2nccnc2c(=O)n1Cc1ccc(C)cc1)C(=O)NC1CCCCC1 (centres undefined),inactive
10,Nc1nnc(-c2ccc(Cl)cc2Cl)s1,active: 12 µM
11,COc1cc(CO)ccc1OCC(=O)Nc1cccc2ccccc12,active: 10.7 µM
12,COc1ccc(CNC(=S)NNC(=O)c2cc3ccccc3o2)cc1,"inconclusive: 19 µM [inhibitor, partial curve, poor fit]"
13,Cc1cc(NC(=O)Nc2cccc([N+](=O)[O-])c2)no1,inactive
14,CCCc1ccc2oc(C(=O)NCCN3CCCC(O)C3)c(C)c2c1 (centres undefined),"inconclusive: 21.3 µM [inhibitor, partial curve, poor fit]"
15,O=C(CN1N=C(c2ccc(Cl)cc2)CCC1=O)NCCN1CCc2ccccc2C1,inactive
16,Cc1cccc(NC(=O)Cc2csc(COc3cccc(C)c3)n2)c1,"inconclusive: 19 µM [inhibitor, partial curve]"
17,COCCn1c(SCC(=O)c2cc(C)n(C)c2C)nc2ccccc2c1=O,"inconclusive: 30.1 µM [inhibitor, single point]"
18,Cc1cc(Br)ccc1SCC(=O)Nc1cccnc1,"inconclusive: 30.1 µM [inhibitor, partial curve, poor fit]"
19,CCOC(=O)Cn1c(=O)n(C2CCCCC2)c2nc(-c3cccc(OC)c3)nc(C(N)=O)c21,inactive
20,CCc1nn(CC(=O)N2CCN(c3cccc(C)c3C)CC2)c(=O)c2cc3sccc3n12,inactive
21,Cc1ccc(-c2csc(NC(=O)c3cccc([N+](=O)[O-])c3C(=O)O)n2)cc1,"inconclusive: 30.1 µM [inhibitor, single point]"
22,Cc1cc(OCC(=O)N(C)C2CCCCC2)ccc1Cl,active: 2.69 µM
23,Cc1cccc(C(=O)Nc2cccc(C(=O)N/N=C/c3ccncc3)c2)c1,"inconclusive: 23.9 µM [inhibitor, single point]"
24,COc1cccc(CNC(=O)CCS(=O)(=O)c2ccc3c(c2)CC(C)N3C(=O)C2CC2)c1 (centres undefined),inactive

# Source: PubChem BioAssay AID588342 (National Center for Advancing Translational Sciences (NCATS), 2011)
